# Data published in patent US20240165204A1, “MODULATION OF TUMOR MICROENVIRONMENT TO AUGMENT EFFICACY OF IMMUNOTHERAPY” (Regen Biopharma, Inc., priority 2022, published 2024).
# Read-outs that look alike come from different tables or passages of the source.
# B1: Interferon Gamma: Interferon Gamma, used at 10 ng/ml on the cells (protein, UniProt P01579 24-161, looked up)
# Interferon gamma: QDPYVKEAENLKKYFNAGHSDVADNGTLFLGILKNWKEESDRKIMQSQIVSFYFKLFKNFKDDQSIQKSVETIKEDMNVKFFNSNKKKRDDFEKLTNYSVTDLNVQRKAIHELIQVMAELSPAAKTGKRKRSQMLFRG
# Tested on: HLA II on tumor associated monocyte like-cells
# Conditions: average of 10 replicates
Molecule,"expression of HLA II by flow cytometry, Average (24 Hours)","expression of HLA II by flow cytometry, Average (48 Hours)","expression of HLA II by flow cytometry, Average (96 Hours)"
CCCC(CCC)C(=O)O [Valproic Acid],626.0,786.0,3853.6
B1,918.1,–,–
